Scores whose standard error is large were omitted. Two further conditions of the source, in which the scores hardly spread, are not listed. Names with del lack the residues named; names with ins carry added residues between the positions named. For some of these results: How much ogerin was present is not stated here.
B1: GPR68, Q15743 (parent)
chain: MGNITADNSSMSCTIDHTIHQTLAPVVYVTVLVVGFPANCLSLYFGYLQIKARNELGVYLCNLTVADLFYICSLPFWLQYVLQHDNWSHGDLSCQVCGILLYENIYISVGFLCCISVDRYLAVAHPFRFHQFRTLKAAVGVSVVIWAKELLTSIYFLMHEEVIEDENQHRVCFEHYPIQAWQRAINYYRFLVGFLFPICLLLASYQGILRAVRRSHGTQKSRKDQIQRLVLSTVVIFLACFLPYHVLLLVRSVWEASCDFAKGVFNAYHFSLLLTSFNCVADPVLYCFVSETTHRDLARLRGACLAFLTCSRTGRAREAYPLGAPEASGKSGAQGEEPELLTKLHPAFQTPNSPGSGGFPTGRLA

Experiments:
[1] = variants of: B1; experiment: cAMP reporter score (Enrich2 score, wild type = 0); higher = more signal; HEK293T, FACS bins
[2] = variants of: B1; experiment: surface expression score (Enrich2 score, wild type = 0); higher = more signal; HEK293T, FACS bins

Variant	cAMP reporter score ([1]; pH 5.5)	cAMP reporter score ([1]; pH 6)	cAMP reporter score ([1]; pH 6, modulator: ogerin)	cAMP reporter score ([1]; pH 6.5, modulator: ogerin)	surface expression score [2]
G329V	2.18	1.23	2.42	2.47	0.613
G329T	-0.363	0.211	-0.119	-0.132	0.249
G329P	0.759	0.011	0.75	1.48	1.58
A333_Q334insGSG	0.344	0.437	0.735	0.63	0.293
Q334C	-1.3	-0.513	-1.05	-0.863	-0.89
Q334H	1.46	0.615	1.29	1.74	1.03
Q334L	1.85	0.793	-2.43		
Q334T	-0.31	0.15	0.09	0.259	0.47
Q334V	0.627	0.738	0.124	0.052	1.08
Q334N	-0.669	0.769	-0.226	0.499	-0.336
Q334G	1.19	1.47	0.994	0.654	0.764
Q334M	0.114	0.511	-0.168	-0.646	0.909
Q334K	1.04	2.14	1.47	2.67	1.07
Q334D	-0.513	-0.458	0.184	1.09	-0.809
Q334E	0.207	0.22	0.135	1.06	0.773
Q334I	0.279	0.41	0.403	0.691	0.51

Variant	cAMP reporter score ([1]; pH 5.5)	cAMP reporter score ([1]; pH 6)	cAMP reporter score ([1]; pH 6, modulator: ogerin)	cAMP reporter score ([1]; pH 6.5, modulator: ogerin)	surface expression score [2]
Q334R	1.93	0.191	1.34	1.38	0.819
Q334A	0.676	0.756	0.935	0.731	0.815
Q334F	0.961		0.65	0.232	0.173
Q334S	0.637	0.563	0.48	0.423	0.796
Q334P	0.139	-0.117	0.382	0.933	0.893
Q334W	1.26	-0.483	0.893	0.669	0.205
G332_Q334del	0.139	-0.586	0.34	-0.031	-0.429
S331_A333del	2.46	0.93	2.5	1.34	0.893
S331del	-0.359		1.44	-0.513	-0.746
A333del	0.869	0.31	0.493	0.145	0.259
A333_G335del	0.531	1.33	0.322	-0.056	0.626
Q334_G335insGSG	0.889	1.13	1.02	0.92	1.06
G335_E337del	0.964	-0.256	0.742	1.13	0.307
G335_E336insGSG	0.393	-0.272	0.461	0.404	0.651
G332_A333insG	0.224	0.348	1.03	-0.696	0.864
